Reference: PubChem BioAssay AID1814 (Broad Institute, 2009)
Where “and” joins values, the source holds several entries; their conditions need not be identical. Equal values may be shown once. Out of some 300,000 compounds screened, about 22,000 (7.3%) were called active. Inconclusive results, whose numbers are uncertain, are shown with a selection of clear calls. Rule as the data show it: active = activity score below about -60%; inconclusive = mostly about -28% to -61%; inactive = positive scores.

experiment: Activators via SNCA 5'UTR binding, MLPCN (AID 1814); details: alpha-synuclein 5'UTR reporter, activators screen; active compounds read low; tested at 7.5 µM

Compound | activity score
Cn1c(SCC(=O)c2ccc(F)cc2)nnc1-c1ccccc1N | inconclusive: -55.1%
CCCCCc1ccc(-c2ccc(/C=C/C(=O)O)cc2)nc1 | inactive: 79.2%
O=C(/C=C/c1ccco1)N1CCN(c2ncccn2)CC1 | inconclusive: -49.3%
Cc1ccc(O)c(NC(=O)CSc2ccc(Cl)cc2)c1 | active: -177%
C/C(=N\NC(=O)c1n[nH]c2c1CCC2)c1cccs1 | inactive: 107%
CCN1C(=O)S/C(=C/c2cn(C)c3ccccc23)C1=O | inconclusive: -61%
O=C1N/C(=C\c2ccccc2)C(O)=C1C=NCc1ccccc1 | inconclusive: -24.8%
Cc1[nH]c2ccccc2c1C(=O)CSc1nc2ccccc2c(=O)n1CCCN1CCOCC1 | active: -66.9%
CCOC(=O)CSc1nc(C)c2cc(OC)ccc2n1 | inconclusive: -41.5%
C/C(=N\NC(=O)c1ccc2c(c1)OCO2)c1ccc2c(c1)OCO2 | active: -83.4%
c1ccc(-c2cn3c4c(sc3n2)CCCC4)cc1 | inactive: 117%
CC1CCCC(C)N1CCCNC(=O)c1cc2c(=O)n(C)c3ccccc3c2n1C (stereo unspecified) | inconclusive: -55.9%
Nc1ncc2c(n1)-c1ccccc1CC2 | inconclusive: -45.9%
COc1ccccc1N1CCN(Cc2ccc(O)c3ncccc23)CC1 | inactive: 76.6%
O=C(NCCN1C(=O)S/C(=C\c2ccccc2F)C1=O)C1=COCCO1 | inconclusive: -61.4%
Oc1c(C(c2cccs2)N2CCC3(CC2)OCCO3)sc2ncnn12 (stereo unspecified) | inconclusive: -55.8%
CCCC(=O)Nc1ccc(NC(=O)c2ccccn2)cn1 | inconclusive: -55.3%
O=C(CSc1nc2ccccc2s1)NC1CCCC1 | inconclusive: -58.3%
C(=N\Nc1nncc2ccccc12)/c1ccccn1 | inactive: 97.8%
COc1cccc(/C=C2\SC(=O)N(CC(=O)NCCCn3ccnc3)C2=O)c1 | inconclusive: -37.4%
CC(Cc1cccs1)NC(=O)c1cccc(Cl)c1 (stereo unspecified) | active: -95.5%

Compound | activity score
Oc1ccc(Nc2nc(-c3cccnc3)cs2)cc1 | inconclusive: -52.8%
COc1ccc2cc(/C=N/O)c(Cl)nc2c1 | inconclusive: -53.5%
O=C(N/N=C/c1ccc(O)c2ncccc12)c1cccc(Br)c1 | inactive: 66.6%
C(=C\c1ccccc1)/CSc1nc2ncccc2[nH]1 | inconclusive: -57.6%
COC(=O)c1ccc(NC(=S)NC2CC3CCC2C3)cc1 (stereo unspecified) | inconclusive: -38.3%
CC(C)Oc1ccccc1C1CC(=O)Nc2cc3c(cc21)OCO3 (stereo unspecified) | inactive: 90.6%
COC(=O)c1sc(NC(=S)NC(=O)c2ccc(F)cc2)nc1C | inconclusive: -47.3%
CC1CN(C(=O)c2cc3c(=O)n4ccccc4nc3s2)CC(C)O1 (stereo unspecified) | inconclusive: -56.8%
c1cnc2c(c1)ccc1cccnc12 | inactive: 85.2% and inactive: 84.9%
CCOc1ccc(C2=Nn3c(nnc3-c3ccccc3OC)SC2)cc1 | inactive: 109%
Cc1cccc(/C=N/n2c(C)nc3ccccc3c2=O)c1 | inconclusive: -57.1%
COc1ccccc1CN1CCN(Cc2nc(-c3ccccc3)no2)CC1 | inconclusive: -52.1%
CC(=O)N(O)CCCCCNC(=O)CCC(=O)N(O)CCCCCNC(=O)CCC(=O)N(O)CCCCCN | inactive: 74.6%
CC(=O)Nc1ccnc(-c2cccnc2)n1 | inconclusive: -42.8%
Cc1sc(NC(=O)c2ccco2)nc1-c1ccc2c(c1)CC(C)N2C(=O)C1CC1 (stereo unspecified) | active: -106%
CCOc1ccc(NC(=O)c2ccccn2)cc1 | inactive: 104%
CCN(CC)CCCNc1ccc(-c2nnc(-c3ccc(OCC(C)C)cc3)o2)cn1 | inactive: 121%
C=CCOc1ccc(C2C(C#N)=C(N)N(Nc3ccccc3)C3=C2C(=O)CCC3)cc1OC (stereo unspecified) | inconclusive: -59.8%
NC(=O)c1ccccc1NC(=O)CN1CCN(Cc2ccc(Cl)cc2Cl)CC1 | inconclusive: -27%
Cc1csc(Nc2nc(N)c(C(=O)Nc3cc(Cl)ccc3F)o2)n1 | inconclusive: -52.8%
O=C(OC1CCOC1=O)c1ccc(-c2nc3ccccc3s2)s1 (stereo unspecified) | inconclusive: -57.2%

Compound | activity score
Cc1ccccc1-n1nc(C)c2c(C(=O)NN)cc(-c3ccncc3)nc21 | inactive: 56.5%
O=C(O)c1cc(N/N=C/c2ccc(-c3ccc(F)cc3)o2)ccc1Cl | inconclusive: -47.9%
CCNC(=S)Nc1ccc(-c2nc3ccccc3[nH]2)cc1 | active: -161%
O=C(Nc1cc([N+](=O)[O-])ccc1O)c1cccc([N+](=O)[O-])c1 | active: -96%
COc1cc(/C=N/NC(=O)c2cccnc2)ccc1OC(=O)c1ccc2c(c1)OCO2 | inconclusive: -53.9%
COc1ccc(O)c(/C=N/NC(=O)c2ccc(OCc3cccc(Br)c3)cc2)c1 | inactive: 82.3%
CCOC(=O)c1ccc(NC(=O)Nc2cccc(C)n2)cc1 | inconclusive: -59.5%
O=C(CNc1ccc(F)cc1)c1ccccc1 | inconclusive: -46.7%
Oc1ccc(C2=NNC(=NCc3ccc4c(c3)OCO4)SC2)c(O)c1 | active: -87.3%
C/C(N)=C(/C#N)C(=O)COC(=O)c1ccc(OCC2CCCO2)cc1 (stereo unspecified) | inconclusive: -55.8%
Cn1ccsc1=NC(=O)c1ccc(CS(C)(=O)=O)cc1 | active: -66.3%
O=Cc1ccc(OCc2ccccn2)cc1 | inconclusive: -52.4%
CSc1nnc(-c2ccc([N+](=O)[O-])cc2)o1 | inconclusive: -23.1%
COc1ccc(CCNCC(O)Cn2c3ccccc3c3ccccc32)cc1OC (stereo unspecified) | inactive: 120%
O=C1c2ccccc2C(=O)N1CSc1nnc(Nc2ccccc2F)s1 | inconclusive: -39.7%
CCOC(=O)c1sc(NC(=O)c2cccc(S(=O)(=O)N3c4ccccc4CC3C)c2)cc1C (stereo unspecified) | inactive: 79.5%
Cc1ccc(C(=O)CSc2nnc(-c3ccco3)n2C)cc1 | inconclusive: -51.9%
Cc1nc2cc(NC(=O)c3ccc([N+](=O)[O-])s3)ccc2s1 | inactive: 76.5%
COc1ccc(-c2oc3ncn(CCN4CCOCC4)c(=N)c3c2-c2ccc(OC)cc2)cc1 | inactive: 74.2%
